In US8916607B2, “Use of piperphentonamine or salts thereof in manufacture of medicaments for treating brain diseases” (Guangzhou Municipal Zhongwei Biotechnology Limited Company, priority 2009, dated 2014):

System: cerebral hemorrhage side of ICH rat brain induced by collagenase
Test: other animal experiments in ICH rat induced by collagenase: BBB permeability, SOD, MDA, TNF, MPO
Settings: 2 mg/kg

In the case of `CN(CCC(=O)/C=C/c1ccc(O)cc1)CCc1ccc2c(c1)OCO2.Cl` [piperphentonamine hydrochloride, Piperphentonamine hydrochloride], the “BBB permeability of cerebral hemorrhage side” value is reported as “reduce increased degree of the BBB permeability” and the “SOD content of cerebral hemorrhage side” value is reported as “prevent the decrease of SOD content”.
